{"source": "PubChem BioAssay AID686979", "about": "(National Center for Advancing Translational Sciences (NCATS), 2013)", "note": "“And” between values parts separate entries of the source, which are not always exact repeats. Identical values can stand only once. In all, about 420,000 compounds went through this assay and about 50,000 (12%) were called active. The shares of active, inactive and inconclusive entries below differ from those in the screen. Calls come from the whole dose curve; as a rule, active = well fitted inhibition curve with a large enough effect; inconclusive = small, poorly fitted or top-dose-only effect; inactive = flat fitted curve, though single readings scatter. Potencies beside an inconclusive call are fits to weak or partial responses and may not hold up. % is set by controls: 0 for no effect and ±100 for the full control effect; potency is the fitted concentration of half-maximal effect; tags give direction and shape of the fitted curve."}
{"test": "qHTS for Inhibitors of human tyrosyl-DNA phosphodiesterase 1 (TDP1): qHTS in cells in presence of CPT; note: nearly all actives have a fitted effect of over 55% in size", "conditions": "chicken DT40 Tdp1-/-;hTDP1 cells + 20 nM CPT, ATP luminescence, 48 h; activity change, negative = growth inhibition: at 46.2 µM (top of the series)", "procedure,_shortened": "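Chicken DT40 Tdp1-/- cells stably complemented with human TDP1 were seeded at 400 cells/well in medium containing 20 nM camptothecin, exposed to pin-transferred compounds, and grown at 37 °C for at least 48 hr. Viability was read as ATP luminescence.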"}
{"smiles": "Cc1nc(C(=O)NCCCO)cc2c1[nH]c1ccccc12", "Potency": "inconclusive: 16.4 µM [inhibitor, single point]"}
{"smiles": "Cc1ccccc1-c1noc(-c2ccccc2F)n1", "activity change, negative = growth inhibition": "inactive: -16.7%"}
{"smiles": "Nc1cc(N)nc(SCC(=O)Nc2ccccc2N2CCOCC2)n1", "activity change, negative = growth inhibition": "inactive: -0.231%"}
{"smiles": "COc1ccc(OCCNC(=O)/C=C/c2ccccc2)cc1", "activity change, negative = growth inhibition": "inactive: 0.931%"}
{"smiles": "CCC(CO)Oc1cc(NC(=O)c2cccc3ccccc23)c2ncn(C(C)C)c2c1", "note": "(configuration not stated)", "Potency": "inconclusive: 29.1 µM [inhibitor, single point]"}
{"smiles": "Cc1noc(C)c1COc1ccc(C(=O)N2CC(C)CC(C)C2)cc1", "note": "(configuration not stated)", "Potency": "inconclusive: 20.6 µM [inhibitor, single point]"}
{"smiles": "O=C(NCc1ccc(F)cc1)c1ccc(S(=O)(=O)Nc2cccc(C(F)(F)F)c2)cc1", "Potency": "inconclusive: 25.9 µM [inhibitor, single point]"}
{"smiles": "N=C(CC(O)COc1ccccc1-c1ccccc1)N1CCCCC1", "note": "(configuration not stated)", "Potency": "active: 5.17 µM"}
{"smiles": "Cc1cccnc1-c1cccc2c1OC(CNC(=O)/C=C/c1cccs1)C2", "note": "(configuration not stated)", "activity change, negative = growth inhibition": "inactive: 18.4% [at 9.04 µM]"}
{"smiles": "COc1cc(Oc2nc(C(F)(F)F)nc3ccccc23)ccc1C=O", "Potency": "inconclusive: 29.1 µM [inhibitor, single point]"}
{"smiles": "COC(=O)c1cccc(C23CC4(C2)[C@H](CN(Cc2ccc(C(F)(F)F)cc2)[C@@H]4c2ccccc2)C3c2ccc(C(F)(F)F)cc2)c1", "note": "(some centres not stated)", "Potency": "inconclusive: 23.1 µM [inhibitor, single point]"}
{"smiles": "Cc1nn(-c2ccccc2)c2c1C(O)CC(C)(C)C2", "note": "(configuration not stated)", "activity change, negative = growth inhibition": "inactive: 5.42%"}
{"smiles": "C[C@H](CO)N1C[C@H](C)[C@@H](CN(C)C(=O)Nc2ccccc2)Oc2ccc(NS(=O)(=O)c3cn(C)cn3)cc2C1=O", "activity change, negative = growth inhibition": "inactive: -19.3%"}
{"smiles": "CCOC(=O)C(=NC1CCCCC1)NNc1cccc(C(F)(F)F)c1", "Potency": "inconclusive: 29.1 µM [inhibitor, single point]"}
{"smiles": "CC1(c2nc3ccccc3[nH]2)c2ccccc2C(=O)N1Cc1ccccn1", "note": "(configuration not stated)", "activity change, negative = growth inhibition": "inactive: 3.75%"}
{"smiles": "Cc1nc(N2CCOCC2)c2c(C)c(C(=O)Nc3ccccc3Cl)sc2n1", "activity change, negative = growth inhibition": "inactive: -13.3%"}
{"smiles": "[N-]=[N+]=CC(=O)C(O)(c1ccccc1)C(Cl)c1ccccc1", "note": "(configuration not stated)", "Potency": "inconclusive: 29.1 µM [inhibitor, single point]"}
{"smiles": "O=C(Nc1ccc(F)cc1F)c1ccc(S(=O)(=O)NCc2ccco2)cc1", "Potency": "inconclusive: 20.6 µM [inhibitor, single point]"}
{"smiles": "OCC1(CCOc2ccccc2)CCN(Cc2ccncc2)CC1", "activity change, negative = growth inhibition": "inactive: -1.27%"}
{"smiles": "COc1ccc(/C=C/C(=O)c2ccc(Cl)cc2)c(OC)c1", "activity change, negative = growth inhibition": "inactive: -20%"}
{"smiles": "O=c1oc(Nc2cccc(F)c2)nc2ccccc12", "Potency": "inconclusive: 23.1 µM [inhibitor, partial curve, poor fit]"}
{"smiles": "COc1ccc2[nH]cc(CCNc3ncncc3-c3cccc(NS(C)(=O)=O)c3)c2c1", "Potency": "inconclusive: 9.2 µM [inhibitor, partial curve]"}
{"smiles": "O=C(NCCc1cccc(Cl)c1)c1ccc(Cl)c([N+](=O)[O-])c1", "Potency": "inconclusive: 20.6 µM [inhibitor, partial curve]"}
{"smiles": "COc1ccc(-n2ncc3c(NCC(C)C)ncnc32)cc1", "Potency": "inconclusive: 32.6 µM [inhibitor, single point]"}
{"smiles": "CC(CC(=O)O)Nc1ccccc1O", "note": "(configuration not stated)", "Potency": "active: 20.6 µM"}
{"smiles": "COc1ccc2c(CC(=O)N3CCc4cc(OC)c(OC)cc4C3)coc2c1", "activity change, negative = growth inhibition": "inactive: -2.85%"}
{"smiles": "O=C1COc2ccc(C(=O)COc3ccc(Cl)cc3Br)cc2N1", "Potency": "inconclusive: 29.1 µM [inhibitor, single point]"}
{"smiles": "COc1ccc(Cn2ccc3nc(C)c(C(=O)Nc4ccc(OC(F)(F)F)cc4)cc3c2=O)cc1", "Potency": "inconclusive: 20.6 µM [inhibitor, single point]"}
{"smiles": "Cc1ccc(NC(=O)CN2CCCC2c2cccs2)cc1S(=O)(=O)N1CCCCC1", "note": "(configuration not stated)", "Potency": "active: 18.4 µM"}
{"smiles": "CN(CC(=O)Nc1ccc(Cl)c(C(F)(F)F)c1)C(=O)c1ccccc1SCC(=O)N1CCCC1", "Potency": "active: 18.4 µM"}
{"smiles": "CCOc1ccc(Nc2nc(N)nc(CN3CCN(c4ccccc4F)CC3)n2)cc1", "activity change, negative = growth inhibition": "inactive: -9.82%"}
{"smiles": "CCCCN(C=O)c1c(CC)nc2c(OCc3cccc(Cl)c3)cccn12", "Potency": "inconclusive: 29.1 µM [inhibitor, single point]"}
{"smiles": "CCN1CCN(c2cc(C)c3cc(NC(=O)c4cncc(Br)c4)ccc3n2)CC1", "Potency": "inconclusive: 23.1 µM [inhibitor, single point]"}
{"smiles": "CCN(CC)CC(C)OC(=O)COc1ccc(OC)cc1", "note": "(configuration not stated)", "activity change, negative = growth inhibition": "inactive: 21%"}
{"smiles": "Cc1ccccc1-c1cc2nc(NCc3cccnc3)n(C)c(=O)c2s1", "Potency": "inconclusive: 29.1 µM [inhibitor, single point]"}
{"smiles": "CS(=O)(=O)N1CCCCC1c1cc(C(=O)Nc2cccc3c2CCCC3)no1", "note": "(configuration not stated)", "Potency": "active: 14.6 µM"}
{"smiles": "CC(=O)c1cccc(NC(=O)c2ccc(C)o2)c1", "Potency": "inconclusive: 29.1 µM [inhibitor, single point]"}
{"smiles": "COc1ccc(C(=O)OCC(=O)NCC2CCCCC2)c(OC)c1", "Potency": "inconclusive: 29.1 µM [inhibitor, single point]"}
{"smiles": "O=C(O)c1cc(NCc2cc(O)ccc2O)ccc1O", "Potency": "inconclusive: 25.9 µM [inhibitor, single point]"}
{"smiles": "CNS(=O)(=O)c1ccc2c3c(cccc13)C(=O)N2", "Potency": "inconclusive: 10.3 µM [inhibitor, partial curve]"}
{"smiles": "COc1ccccc1-c1cc(NCc2ccccc2)ncn1", "Potency": "active: 6.51 µM"}
{"smiles": "C=CCN1C(c2ccc(OCC)cc2)=CS/C1=C(\\C#N)c1nnc2n1CCCCC2", "Potency": "inconclusive: 25.9 µM [inhibitor, single point]"}
{"smiles": "Cc1ccc(C)c(-c2csc(NC(=O)c3c(C)noc3C)n2)c1", "Potency": "inconclusive: 10.3 µM [inhibitor, partial curve]"}
{"smiles": "COc1ccccc1OCc1nnc(SCC(=O)c2cc(Cl)ccc2OC)o1", "Potency": "inconclusive: 23.1 µM [inhibitor, single point]"}
{"smiles": "CS(=O)(=O)c1ccc(NC(=O)COc2ccccc2C(=O)Nc2ccccc2)cc1", "Potency": "active: 20 µM"}
{"smiles": "Cc1ccn2c(c1)nc(=S)n2C(=O)c1ccccc1", "Potency": "inconclusive: 20.6 µM [inhibitor, single point]"}
{"smiles": "Cc1cc(NC(=O)Cn2nnc3sc4c(c3c2=O)CCC(C(C)(C)C)C4)no1", "note": "(configuration not stated)", "Potency": "active: 11.2 µM"}
{"smiles": "Cc1ccc(CN2C3CCCC2CC(NC(=O)c2ccc(F)cc2)C3)cc1", "note": "(configuration not stated)", "activity change, negative = growth inhibition": "inactive: -9.31%"}
{"smiles": "COc1ccc(C(C)=O)cc1CN1C(=O)C(C)N(c2ccc(C)cc2)C1=O", "note": "(configuration not stated)", "Potency": "inconclusive: 18.4 µM [inhibitor, partial curve]"}
{"smiles": "O=C(Nc1cccc(-c2nc3ccccc3o2)c1)c1cccc(Br)c1", "Potency": "inconclusive: 29.1 µM [inhibitor, single point]"}
{"smiles": "CCCCC(=O)OC1=C(C(=O)c2ccccc2)N(CC)S(=O)(=O)c2ccccc21", "Potency": "active: 20.6 µM"}
{"smiles": "Cc1ncc(CO)c(/C=N/NC(=S)Nc2cccc(Cl)c2)c1O", "Potency": "inconclusive: 29.1 µM [inhibitor, single point]"}
{"smiles": "O=C(NCc1ccccc1OC(F)(F)F)C1CCC(=O)N(CCc2ccccn2)C1", "note": "(configuration not stated)", "activity change, negative = growth inhibition": "inactive: 9.95%"}
{"smiles": "CCC(CC)=C(C#N)C(=O)NC1CCCCC1", "Potency": "inconclusive: 8.2 µM [inhibitor, partial curve]"}
{"smiles": "C=CCn1c(/N=C/c2ccc(N(C)C)cc2)nc2ccccc21", "activity change, negative = growth inhibition": "inactive: -18.9%"}
{"smiles": "COc1ccc(C(C)=O)cc1CN1C(=O)NC(CC(C)C)C1=O", "note": "(configuration not stated)", "activity change, negative = growth inhibition": "inactive: -2.6%"}
{"smiles": "CCSc1nc2ccccc2n1C(=O)Oc1ccccc1", "activity change, negative = growth inhibition": "inactive: -3.34%"}
{"smiles": "CC1CCN(S(=O)(=O)c2ccc3nc(Nc4ccc(C#N)cc4)ccc3c2)CC1", "Potency": "inconclusive: 25.9 µM [inhibitor, single point]"}
{"smiles": "CC1(C(=O)Nc2cnc3ccccc3c2)CCN1CCc1ccccc1", "note": "(configuration not stated)", "Potency": "inconclusive: 18.4 µM [inhibitor, single point]"}
{"smiles": "COc1ccc(-c2nn(-c3ccccc3)cc2C(=O)N(C)CC(=O)Nc2ccccc2Br)cc1", "Potency": "active: 23.1 µM"}
{"smiles": "Cc1c(NS(=O)(=O)c2cc(C(=O)N3CCCC(C)C3)ccc2Cl)c(=O)n(-c2ccccc2)n1C", "note": "(configuration not stated)", "activity change, negative = growth inhibition": "inactive: -1.49%"}
{"smiles": "COc1cccc(NC(=O)C2CCCN(c3ncnc4c3nc3n4CCCCC3)C2)c1", "note": "(configuration not stated)", "Potency": "active: 20.6 µM"}
{"smiles": "FC(F)(F)c1cccc(CNC2CCN(Cc3ccccc3)CC2)c1", "Potency": "inconclusive: 16.4 µM [inhibitor, single point]"}
{"smiles": "O=C(/C=C/c1ccccc1Cl)N(c1ccccn1)C1CCCCC1", "Potency": "inconclusive: 18.4 µM [inhibitor, single point]"}
{"smiles": "COc1cccc(CNC(=O)C2CCN(S(=O)(=O)N3CCC(C)CC3)CC2)c1", "Potency": "inconclusive: 14.6 µM [inhibitor, single point] and inconclusive: 16.4 µM [inhibitor, single point]"}
{"smiles": "O=C(c1ccc(Cl)cc1)N1CCN(CCOc2ccccc2)CC1", "activity change, negative = growth inhibition": "inactive: -0.27%"}
{"smiles": "CC(=O)NC12CC3CC(C1)CC(C(=O)Oc1ccc(N(C)S(=O)(=O)c4cc(C)ccc4C)cc1)(C3)C2", "Potency": "inconclusive: 29.1 µM [inhibitor, single point]"}
{"smiles": "CC1(C)Cc2nc3scc(NC(=O)c4ccccc4)c3cc2CO1", "Potency": "inconclusive: 29.1 µM [inhibitor, single point]"}
{"smiles": "Cc1nn(CC(=O)Nc2ccc3c(c2)nc(CCN2CCCCC2)n3C)c(=O)c2ccccc12", "Potency": "active: 11.2 µM"}
{"smiles": "COC(=O)c1ccc(CSc2nc3c(cnn3-c3ccc(F)cc3)c(=O)[nH]2)o1", "Potency": "inconclusive: 9.2 µM [inhibitor, partial curve, poor fit]"}
{"smiles": "COc1ccccc1N1CCN(S(=O)(=O)c2c(C)nc3sc(C)c(C)n3c2=O)CC1", "Potency": "active: 20.6 µM"}
{"smiles": "Cc1cccc(OCCSc2nc(-c3cccs3)nc3cc(=O)[nH]n23)c1", "Potency": "inconclusive: 23.1 µM [inhibitor, single point]"}
